Scores whose standard error is large were omitted. The source holds two more conditions with little spread; they are left out. Read del as a deletion of the residues named and ins as an insertion between two positions. For some assays here: How much ogerin was present is not stated here.
B1: GPR68, Q15743 (parent)
chain: MGNITADNSSMSCTIDHTIHQTLAPVVYVTVLVVGFPANCLSLYFGYLQIKARNELGVYLCNLTVADLFYICSLPFWLQYVLQHDNWSHGDLSCQVCGILLYENIYISVGFLCCISVDRYLAVAHPFRFHQFRTLKAAVGVSVVIWAKELLTSIYFLMHEEVIEDENQHRVCFEHYPIQAWQRAINYYRFLVGFLFPICLLLASYQGILRAVRRSHGTQKSRKDQIQRLVLSTVVIFLACFLPYHVLLLVRSVWEASCDFAKGVFNAYHFSLLLTSFNCVADPVLYCFVSETTHRDLARLRGACLAFLTCSRTGRAREAYPLGAPEASGKSGAQGEEPELLTKLHPAFQTPNSPGSGGFPTGRLA

Tests used:
[1] = variants of: B1; assay: cAMP reporter score (Enrich2 score, wild type = 0); higher = more signal; HEK293T, FACS bins
[2] = variants of: B1; assay: surface expression score (Enrich2 score, wild type = 0); higher = more signal; HEK293T, FACS bins

| Variant | cAMP reporter score ([1]; pH 5.5) | cAMP reporter score ([1]; pH 6) | cAMP reporter score ([1]; pH 6, modulator: ogerin) | cAMP reporter score ([1]; pH 6.5, modulator: ogerin) | surface expression score [2] |
| --- | --- | --- | --- | --- | --- |
| R119_L121del | -0.651 | 0.017 | -0.782 | -0.516 | -3.1 |
| C114_S116del | -1.93 | -0.906 | -1.58 | -1.46 | -1.51 |
| F129_Q131del | -2.15 | -1.97 | -2 | -1.37 | -2.41 |
| V117_D118insGS | -1.12 | -0.065 | -3.23 | -0.438 | -1.21 |
| L121_A122insGS | -1.94 | -1.62 | -0.938 | -1.44 | -1.63 |
| A122_V123insGS | -2.17 | -1.9 | -1.66 | -0.699 | -2.17 |
| D118del | -1.77 | -1.98 | – | -1.6 | -2.35 |
| H130del | -1.59 | -1.71 | -2.13 | -1.8 | -1.88 |
| L121del | -0.642 | -2.06 | – | -1.11 | -3.51 |
| V117F | 0.125 | – | -0.604 | – | 0.411 |
| V117D | -1.97 | -0.954 | -0.597 | -1.43 | -1.85 |
| V117P | -2.72 | -0.913 | – | -1.74 | -2.16 |
| V117H | -0.404 | – | -0.671 | – | – |
| V117C | -0.579 | – | -0.36 | -0.63 | -0.671 |
| V117Y | -2.51 | – | -1.96 | -1.94 | -1.91 |
| V117W | -0.434 | -1.15 | -1.89 | -1.93 | -1.68 |
| V117A | 0.453 | 0.386 | 0.567 | -0.31 | – |
| V117S | -1.57 | -1.44 | -1.03 | -1.53 | -1.91 |
| V117Q | -0.413 | -0.668 | -0.699 | -0.875 | – |
| V117N | -2.31 | -0.693 | -1.21 | -1.25 | -2.6 |
| V117T | -0.407 | – | – | -0.431 | – |
| V117E | -1.62 | -1.47 | -1.81 | -1.39 | -2.19 |

| Variant | cAMP reporter score ([1]; pH 5.5) | cAMP reporter score ([1]; pH 6) | cAMP reporter score ([1]; pH 6, modulator: ogerin) | cAMP reporter score ([1]; pH 6.5, modulator: ogerin) | surface expression score [2] |
| --- | --- | --- | --- | --- | --- |
| V117G | -2.48 | -0.854 | -0.79 | -0.922 | -2.76 |
| V117L | -0.669 | 0.618 | 0.092 | – | -0.736 |
| V117K | -0.153 | -0.707 | -0.571 | 0.068 | -1.41 |
| V117I | 0.539 | 0.897 | 0.637 | -0.017 | – |
| V117M | -0.474 | 0.032 | -0.649 | -0.504 | -0.471 |
| H125_F127del | -1.14 | 0.349 | -2.1 | -1.55 | -2.35 |
| I115_S116del | -1.24 | -0.832 | -0.806 | -1.17 | -2.26 |
| Q131L | -0.598 | -1.16 | -0.534 | -0.547 | -2.77 |
| Q131N | 0.182 | – | 0.125 | 0.014 | 1.01 |
| Q131F | -1.1 | -0.933 | -1.07 | -1.51 | -1.46 |
| Q131D | 1.27 | -0.026 | 0.706 | -0.542 | – |
| Q131G | 1.28 | -0.132 | 2.34 | 0.327 | -0.107 |
| Q131S | 0.988 | -0.405 | 1.03 | 0.415 | 1.03 |
| Q131A | -0.704 | – | -2.07 | -0.489 | -2.17 |
| Q131R | -0.391 | 0.108 | -0.423 | -0.701 | -0.342 |
| Q131M | 0.098 | -0.028 | -0.274 | -0.493 | -0.149 |
| Q131K | -0.509 | -0.082 | -0.529 | -0.29 | 1.1 |
| Q131I | 0.21 | – | -0.208 | -0.13 | – |
| Q131C | 0.324 | – | – | -1.04 | -0.443 |
| Q131P | -0.531 | -0.448 | -0.525 | -0.683 | -1.22 |
| Q131H | 0.089 | -1.03 | -0.295 | -0.46 | -1.03 |
| Q131E | -0.704 | -0.002 | -0.501 | -0.774 | -1.38 |

| Variant | cAMP reporter score ([1]; pH 5.5) | cAMP reporter score ([1]; pH 6) | cAMP reporter score ([1]; pH 6, modulator: ogerin) | cAMP reporter score ([1]; pH 6.5, modulator: ogerin) | surface expression score [2] |
| --- | --- | --- | --- | --- | --- |
| V123_A124insGSG | -1.35 | -1.7 | -1.53 | -2.1 | -2.77 |
| A122_V123del | -1.26 | -1.13 | -2.24 | -0.784 | -2.34 |
| F127_R128insGS | -1.42 | -1.73 | -1.66 | -1.51 | -2.56 |
| I115_V117del | -1.39 | 0.148 | -0.887 | -0.167 | -3.29 |
| S116N | -0.928 | -1.6 | -0.339 | – | – |
| S116M | -2.83 | -0.496 | -1.67 | -0.441 | – |
| S116G | 0.077 | -0.914 | -0.521 | 0.309 | 0.426 |
| S116P | -0.86 | -0.201 | – | – | -2.6 |
| S116C | -0.361 | -0.207 | – | -1.19 | 1.9 |
| S116W | -0.799 | -0.013 | -1.42 | -0.611 | -1.77 |
| S116Q | -0.321 | -0.896 | -0.696 | -0.805 | -1.27 |
| S116Y | -0.9 | -1.1 | -0.458 | -0.219 | -2.62 |
| S116L | 0.17 | -0.834 | -1.6 | -0.066 | -1.06 |
| S116E | -0.428 | 0.063 | -0.67 | – | -0.392 |
| S116A | 1.98 | 3.31 | 1.34 | 3.18 | 1.92 |
| S116F | -1.07 | -0.779 | -1.37 | -0.832 | – |
| S116H | 0.143 | -0.104 | – | -0.224 | – |
| S116D | -1.77 | -1.09 | -1.98 | -1.8 | -3.18 |
| S116R | -0.401 | -0.062 | -3.22 | – | – |
| S116I | -1.66 | -1.25 | -1.75 | -1.72 | -1.57 |
| S116V | -1.08 | -1.38 | -1.23 | -0.528 | 1.51 |
| S116T | -1.7 | – | -0.684 | -0.802 | -0.196 |

— the GPR68 mutational scans of Howard et al. (2025)
